From the supplement of paper PMC10126150
Values marked as one replicate rest on one cluster of the flow cell; about a third of the high ones do not repeat.
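Note: ATP exposure 15 min at 22 °C before imaging.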

Each sequence was assayed on ATP (assay: switch fluorescence ratio, 500 uM ATP over buffer (Cy3 cluster intensity, sum of 5 cycles each) (fold (ratio)); higher = stronger signal-on switching upon ATP binding; sequences stand for … in TCGTCGGCAGCGTCAGATGTGTATAAGAGACAGTTTTTTTTTTTTTTTTTTTTTTTTT…TC). Conditions: aptamer strand: ATP DNA aptamer (quencher-CACCTGGGGGAGTATTGCGGAGGAAGG + anchor), 100 nM annealed; ATP concentration: 500 uM; one replicate.
How it was run: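 Switching-strand clusters labelled with Cy3 on a modified Illumina MiSeq flow-cell were annealed to 100 nM quencher-labelled ATP aptamer, imaged in selection buffer, and re-imaged after 15 min with 500 uM ATP at 22 °C. This was done over five cycles with NaOH stripping and re-annealing in between. The fluorescence ratio is summed target-cycle over summed buffer-cycle Cy3 intensity per cluster, averaged per switch-domain sequence, excluding clusters outside 100-1000 RFU.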
AGAAGGCCGA showed a switch fluorescence ratio of 0.972. AGAAGTATTA gave a switch fluorescence ratio of 1. With AGAAGTGCT the switch fluorescence ratio was 1. Sequence AGAAGTGTCA has a switch fluorescence ratio of 0.978. AGAAGTTAGT was tested, and the switch fluorescence ratio was 0.957. In the case of AGAATATTCG, the switch fluorescence ratio is reported as 0.992. AGAATCAC showed a switch fluorescence ratio of 1.09. Sequence AGAATCGCTT has a switch fluorescence ratio of 0.97. Work on AGAATGACA yielded a switch fluorescence ratio of 1.06. AGAATGCTAT was tested, and the switch fluorescence ratio was 1.04. AGAATGGGGC showed a switch fluorescence ratio of 0.993. Sequence AGAATGGTGG has a switch fluorescence ratio of 1.11. AGAATGTGGT showed a switch fluorescence ratio of 0.951. AGAATTACCC gave a switch fluorescence ratio of 2.06. AGACAATTCG gave a switch fluorescence ratio of 1.04. Sequence AGACAGTTTG has a switch fluorescence ratio of 0.905. AGACATATAT showed a switch fluorescence ratio of 1.85. AGACATGGCG showed a switch fluorescence ratio of 1.08. Sequence AGACCCACGC has a switch fluorescence ratio of 1.47. In the case of AGACCCGACT, the switch fluorescence ratio is reported as 1.08. AGACCGCATA was tested, and the switch fluorescence ratio was 5.41. Sequence AGACCGTGGT has a switch fluorescence ratio of 1.01. Sequence AGACCTCATC has a switch fluorescence ratio of 1.06. With AGACGATAAG the switch fluorescence ratio was 0.96. AGACGATCGA showed a switch fluorescence ratio of 0.941. Sequence AGACGCCCGT has a switch fluorescence ratio of 1.01. Work on AGACGCGAGC yielded a switch fluorescence ratio of 1.11. AGACGTCAAT gave a switch fluorescence ratio of 1.32. For AGACGTTAGT, the switch fluorescence ratio was 0.951. AGACTCCGGG gave a switch fluorescence ratio of 0.986. For AGACTCGCCG, the switch fluorescence ratio was 1.01. For AGACTCGTGC, the switch fluorescence ratio was 1. AGACTGAGGA showed a switch fluorescence ratio of 1.02. For AGACTGAGTG, the switch fluorescence ratio was 1.02. In the case of AGACTGCCC, the switch fluorescence ratio is reported as 1.11. In the case of AGACTGGAGA, the switch fluorescence ratio is reported as 0.991. With AGACTGGGAT the switch fluorescence ratio was 0.948. AGACTGTGTG gave a switch fluorescence ratio of 0.972. Sequence AGACTTTTAA has a switch fluorescence ratio of 1.01. Work on AGAGAAGCGA yielded a switch fluorescence ratio of 0.982. With AGAGACAAGC the switch fluorescence ratio was 1.06. In the case of AGAGACGACA, the switch fluorescence ratio is reported as 1.07. With AGAGAGATAA the switch fluorescence ratio was 1.04. For AGAGATAATA, the switch fluorescence ratio was 1.04. Sequence AGAGATAATG has a switch fluorescence ratio of 1.02. With AGAGATCATA the switch fluorescence ratio was 1.01. AGAGATGTCC showed a switch fluorescence ratio of 0.962. AGAGATTCAG showed a switch fluorescence ratio of 1.02. AGAGATTTT showed a switch fluorescence ratio of 0.99. Sequence AGAGCAGAAT has a switch fluorescence ratio of 0.982. With AGAGCGACCA the switch fluorescence ratio was 0.972. AGAGCTGGTA showed a switch fluorescence ratio of 1. Work on AGAGCTTGTT yielded a switch fluorescence ratio of 1. Sequence AGAGGACAGT has a switch fluorescence ratio of 1. AGAGGAGTGG was tested, and the switch fluorescence ratio was 0.935. For AGAGGGGAGC, the switch fluorescence ratio was 1.01. Sequence AGAGGGTTG has a switch fluorescence ratio of 1.01. For AGAGGTGATG, the switch fluorescence ratio was 0.969. Sequence AGAGTAAAAT has a switch fluorescence ratio of 0.978. AGAGTAAACA was tested, and the switch fluorescence ratio was 1.02. Work on AGAGTGCTTT yielded a switch fluorescence ratio of 0.977. AGAGTGGTTC gave a switch fluorescence ratio of 1.01. In the case of AGAGTTGTAG, the switch fluorescence ratio is reported as 1.03. AGAGTTGTGT gave a switch fluorescence ratio of 0.979. AGAGTTTGCA showed a switch fluorescence ratio of 0.983. AGATAAAGAT showed a switch fluorescence ratio of 1.01. In the case of AGATACCTTT, the switch fluorescence ratio is reported as 0.999. With AGATAGCCTA the switch fluorescence ratio was 0.982. Work on AGATAGGATA yielded a switch fluorescence ratio of 0.995. AGATAGGCGC was tested, and the switch fluorescence ratio was 1.03. AGATCACACT showed a switch fluorescence ratio of 1.03. AGATCACGGG showed a switch fluorescence ratio of 0.968. Work on AGATCAGACG yielded a switch fluorescence ratio of 0.97. AGATCCGCTA was tested, and the switch fluorescence ratio was 2.09. Work on AGATCGATTT yielded a switch fluorescence ratio of 1. For AGATCGTTTC, the switch fluorescence ratio was 1. With AGATCTAATA the switch fluorescence ratio was 0.963. For AGATCTGGAC, the switch fluorescence ratio was 1.04. In the case of AGATGAACTG, the switch fluorescence ratio is reported as 0.913. Sequence AGATGACTAC has a switch fluorescence ratio of 1.02. In the case of AGATGATTG, the switch fluorescence ratio is reported as 1.05. In the case of AGATGCACTC, the switch fluorescence ratio is reported as 1.05. Sequence AGATGCAGGG has a switch fluorescence ratio of 0.947. With AGATGCCTCA the switch fluorescence ratio was 1.01. Sequence AGATGTGATT has a switch fluorescence ratio of 1.01.
